{
  "source": "the supplement of paper PMC11876631",
  "proteins": {"B1": {"name": "erpA V70Q (protein)", "chain": "MSDDVALPLEFTDAAANKVKSLIADEDNPNLKLRVYITGGGCSGFQYGFTFDDQVNEGDMTIEKQGVGLQVDPMSLQYLVGGSVDYTEGLEGSRFIVTNPNAKSTCGCGSSFSI"}, "B2": {"name": "erpA L69A (protein)", "chain": "B1 chain with L69A, Q70V"}, "B3": {"name": "erpA L69W (protein)", "chain": "B1 chain with L69W, Q70V"}, "B4": {"name": "argA V60P (protein)", "chain": "MVKERKTELVEGFRHSVPYINTHRGKTFVIMLGGEAIEHENFSSIVNDIGLLHSLGIRLPVVYGARPQIDANLAAHHHEPLYHKNIRVTDAKTLELVKQAAGTLQLDITARLSMSLNNTPLQGAHINVVSGNFIIAQPLGVDDGVDYCHSGRIRRIDEDAIHRQLDSGAIVLMGPVAVSVTGESFNLTSEEIATQLAIKLKAEKMIGFCSSQGVTNDDGDIVSELFPNEAQARVEAQEEKGDYNSGTVRFLRGAVKACRSGVRRCHLISYQEDGALLQELFSRDGIGTQIVMESAEQIRRATINDIGGILELIRPLEQQGILVRRSREQLEMEIDKFTIIQRDNTTIACAALYPFPEEKIGEMACVAVHPDYRSSSRGEVLLERIAAQAKQSGLSKLFVLTTRSIHWFQERGFTPVDIDLLPESKKQLYNYQRKSKVLMADLG"}, "B5": {"name": "accA V196A (protein)", "chain": "MSLNFLDFEQPIAELEAKIDSLTAVSRQDEKLDINIDEEVHRLREKSVELTRKIFADLGAWQIAQLARHPQRPYTLDYVRLAFDEFDELAGDRAYADDKAIVGGIARLDGRPVMIIGHQKGRETKEKIRRNFGMPAPEGYRKALRLMQMAERFKMPIITFIDTPGAYPGVGAEERGQSEAIARNLREMSRLGVPVACTVIGEGGSGGALAIGVGDKVNMLQYSTYSVISPEGCASILWKSADKAPLAAEAMGIIAPRLKELKLIDSIIPEPLGGAHRNPEAMAASLKAQLLADLADLDVLSTEDLKNRRYQRLMSYGYA"}, "B6": {"name": "fabA M87A (protein)", "chain": "MVDKRESYTKEDLLASGRGELFGAKGPQLPAPNMLMMDRVVKMTETGGNFDKGYVEAELDINPDLWFFGCHFIGDPVMPGCLGLDAAWQLVGFYLGWLGGEGKGRALGVGEVKFTGQVLPTAKKVTYRIHFKRIVNRRLIMGLADGEVLVDGRLIYTASDLKVGLFQDTSAF"}, "B7": {"name": "fabA M87W (protein)", "chain": "B6 chain with A87W"}, "B8": {"name": "fabA L90A (protein)", "chain": "B6 chain with A87M, L90A"}, "B9": {"name": "fabA W88A (protein)", "chain": "B6 chain with A87M, W88A"}, "B10": {"name": "fabA M87Q (protein)", "chain": "B6 chain with A87Q"}},
  "note": "Positions count from the first letter of the chain named. Numbers in names are those of the source. ± gives the standard deviation of the averaged measurements. Laboratory Escherichia coli strains with one amino-acid change in an essential protein, pooled on minimal glucose agar with carbenicillin or gentamicin at twice the control MIC (plus kanamycin and chloramphenicol for the plasmids), 48 h. Fold change of barcode share against drug-free plates; higher = less susceptible. Active = above 20 in both replicates (the paper's putatively resistant). '<' = one read or none on drug, '>' = one read or none on a drug-free plate. Shares are relative, so most strains fall below 1 when a few take over. Listed are strains with at least 15 reads on both drug-free plates, and hits; most hits rest on fewer reference reads. Replicate rank correlation about 0.5. Edits are read from barcodes.",
  "data": [
    {"target": "Escherichia coli (laboratory strain)", "assay": "barcode share on antibiotic plates over drug-free plates; higher = less susceptible", "settings": "antibiotic: carbenicillin; 2× MIC (3.1 µg/mL)", "experimental": "(§1)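 A pool of E. coli strains, each edited to carry one amino-acid change in an essential protein, was grown for 48 h on minimal glucose agar with or without antibiotic; strain barcodes were sequenced; mean of two replicates.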", "values": [
      {"protein": "B1", "fold change of barcode share": "0.646 ± 0.18"},
      {"protein": "B2", "fold change of barcode share": "0.437 ± 0.16"},
      {"protein": "B3", "fold change of barcode share": "0.816 ± 0.28"},
      {"protein": "B4", "fold change of barcode share": "0.528 ± 0.033"},
      {"protein": "B5", "fold change of barcode share": "0.257 ± 0.043"},
      {"protein": "B6", "fold change of barcode share": "0.384 ± 0.19"},
      {"protein": "B7", "fold change of barcode share": "0.488 ± 0.034"},
      {"protein": "B8", "fold change of barcode share": "0.594 ± 0.037"},
      {"protein": "B9", "fold change of barcode share": "0.44 ± 0.008"},
      {"protein": "B10", "fold change of barcode share": "0.277 ± 0.24"}
    ]},
    {"target": "Escherichia coli (laboratory strain)", "assay": "barcode share on antibiotic plates over drug-free plates; higher = less susceptible", "settings": "antibiotic: gentamicin; 2× MIC (MIC 0.45 µg/mL)", "experimental": "as §1", "values": [
      {"protein": "B2", "fold change of barcode share": "0.0137 ± 0.0046"},
      {"protein": "B3", "fold change of barcode share": "0.0495 ± 0.039"},
      {"protein": "B4", "fold change of barcode share": "0.00933 ± 0.0081"},
      {"protein": "B5", "fold change of barcode share": "0.0546 ± 0.068"},
      {"protein": "B6", "fold change of barcode share": "< 0.0177"},
      {"protein": "B7", "fold change of barcode share": "0.0394 ± 0.042"},
      {"protein": "B8", "fold change of barcode share": "0.00621 ± 0.0026"},
      {"protein": "B9", "fold change of barcode share": "0.014 ± 0.005"},
      {"protein": "B10", "fold change of barcode share": "< 0.014"}
    ]}
  ]
}
